Variants at the background level are over-represented here.
B1: tRNA (parent)
chain: CUCUCGGUAGCCAAGUUGGUUUAAGGCGCAAGACUUUAAUUUAUCACUACGAAAUCUUGAGAUCGGGCGUUCGACUCGCCCCCGGGAGAUUUUUUCCUCGAGCAA

Variants of: B1
Experiment: nonsense suppression (GFP-seq) (ratio to wild type); higher = more function; SUP4oc tRNA, yeast GFP reporter sort-seq
Outline: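 Yeast carrying genome-integrated SUP4oc tRNA variants from a library with ~3% random mutations were grown in raffinose/galactose medium with 80 mg/L adenine. Each strain also carried a galactose-driven GFP ochre reporter and RFP. Cells were sorted into GFP/RFP bins, and each bin was Illumina-sequenced (phred ≥30). Nonsense suppression (GFPSEQ) is the bin median GFP/RFP, weighted by each variant's estimated cell share per bin, relative to wild-type SUP4oc; variants needed ≥100 reads and ≥30 cells.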

Variant | nonsense suppression
U8C A54C | 0.0833
G7U U58A G61A | ≤ 0.026
G7U A14C G66C G88C | ≤ 0.026
G7U U17G A24G U76C | ≤ 0.026
U8C G32U G59U | ≤ 0.026
G7U A74C | ≤ 0.026
U8A A31U U55A | ≤ 0.026
G7U U8G | ≤ 0.026
U8C G26U C34U G88C | ≤ 0.026
G7U C82A | 1.02
U8A C82A | ≤ 0.026
U8C C29U G66U | ≤ 0.026
U8A G59U C81G | ≤ 0.026
U8C G19U U20G G67C G88U | ≤ 0.026
G7U G59A C79U | ≤ 0.026
U8A G15U U55C | ≤ 0.026
G7U A14G G78A | ≤ 0.026
U8C U16C A23C U71G G73A | ≤ 0.026
U8G | ≤ 0.026
U8A | ≤ 0.026
U8C | ≤ 0.026
U8G A30U C75U | ≤ 0.026
G7U U63A A89U | ≤ 0.026
U8C A23U A54C | ≤ 0.026

Variant | nonsense suppression
G7U A14U U16C A24U | ≤ 0.026
U8C C27U | ≤ 0.026
U8C U20G U76C | ≤ 0.026
U8A G25C C29A C72U G88U | ≤ 0.026
U8A G25C | ≤ 0.026
G7U U55A G86U | ≤ 0.026
G7U A33G A60G C72U | ≤ 0.026
G7U A14G U57C G78A | ≤ 0.026
U8A U57G C82A | ≤ 0.026
U8A G66A | ≤ 0.026
U8A G66U | ≤ 0.026
U8A G66C | ≤ 0.026
G7U C79A G86C | ≤ 0.026
U8C G84A A89G | ≤ 0.026
G7U A31G C34A C75A | ≤ 0.026
U8C G15U A23U A62G C64A G65C | ≤ 0.026
U8A G18C | ≤ 0.026
U8A G73C | ≤ 0.026
U8C C79G | ≤ 0.026
U8C C29U | ≤ 0.026
G7U U22A C34U U57G U63C | ≤ 0.026
U8G A14U U20A A62U | ≤ 0.026
U8C U58A | ≤ 0.026
U8C A30C | ≤ 0.026

Variant | nonsense suppression
U8A C11U G15C C34A | ≤ 0.026
U8A A33G | ≤ 0.026
U8A C81G A87U | ≤ 0.026
U8C A23C G32C A62G | ≤ 0.026
U8A G19U C81G | ≤ 0.026
U8A A23G G65C | ≤ 0.026
G7U U55C C72A A74G | ≤ 0.026
U8A A13U G19A A62G G67A U71C | ≤ 0.026
U8C A60C C79U | ≤ 0.026
U8A A13G C34A | ≤ 0.026
G7U G69U G88A | ≤ 0.026
G7U G73C | ≤ 0.026
U8A A14U G65A G78U A87C | ≤ 0.026
U8G A13C G28C C64U U70A C72U G84U | ≤ 0.026
U8C A13C | ≤ 0.026
U8C A13G | ≤ 0.026
U8A A9G C27G U76A | ≤ 0.026
U8A C68A A74C | ≤ 0.026
G7U C56U | ≤ 0.026
G7U U8G G19U U21C U35A A74G G88U | ≤ 0.026
U8A U63C | ≤ 0.026
U8A A9U U21G C64A | ≤ 0.026
G7U G10U G67C | ≤ 0.026
U8C G84U | ≤ 0.026

Variant | nonsense suppression
U8A G10U | ≤ 0.026
G7U U22C C27A G73C | ≤ 0.026
U8A G18C A33G U76G | ≤ 0.026
U8G A24C | ≤ 0.026
U8G A24U | ≤ 0.026
G7U G26A C34G | ≤ 0.026
U8A G28A U35G | ≤ 0.026
G7U G25A C27U A60G | ≤ 0.026
G7U C34U G66A C82A | ≤ 0.026
U8C C80U C82G | ≤ 0.026
G7U G59A | ≤ 0.026
U8A C11G A24G C56U | ≤ 0.026
G7U G15U A87C | ≤ 0.026
G7U U20A G32U G84C | ≤ 0.026
U8G A24U C34G C77G | ≤ 0.026
U8A C79G | ≤ 0.026
G7U C11U C56G | ≤ 0.026
G7U A54G G61A | ≤ 0.026
U8A C34A G85A | ≤ 0.026
G7U C27A U57A G84U | ≤ 0.026
U8C C29A U57C G73C | ≤ 0.026
U8A G69A G73A C80A | ≤ 0.026
U8A C34G C75G | ≤ 0.026
G7U C81A | ≤ 0.026

Variant | nonsense suppression
G7U G69C | ≤ 0.026
G7U G15U G59A | ≤ 0.026
G7U G18A C83U | ≤ 0.026
U8A A74G | ≤ 0.026
U8C G15U G19U A24G | ≤ 0.026
G7U U20C A33G A54U | ≤ 0.026
U8C A60U G73A | ≤ 0.026
U8C A14G G19U G26A U55A U70A | ≤ 0.026
G7U A60G | ≤ 0.026
U8C U57G | ≤ 0.026
U8C A31C A54U G85A G88A | ≤ 0.026
G7U G78U | ≤ 0.026
G7U G78A | ≤ 0.026
U8G A33G C34A U58G | ≤ 0.026
G7U G65A | ≤ 0.026
G7U C11U U58G | ≤ 0.026
U8G A33C U71A C75G U76A | ≤ 0.026
U8C A89C | ≤ 0.026
G7U C27U G73A | ≤ 0.026
U8G A30U A54G C83G | ≤ 0.026
G7U C29U G65A C77A G88C | ≤ 0.026
G7U G66C G84C G86C | ≤ 0.026
U8A A9U G25U | ≤ 0.026
G7U U35C U57C U70A C80U G88U | ≤ 0.026

Variant | nonsense suppression
U8A A54G A74C C75G | ≤ 0.026
U8C G26C U57C G69C | ≤ 0.026
G7U A23U G88C | ≤ 0.026
G7U A62U C72G | ≤ 0.026
U8C G18A U35G | ≤ 0.026
U8A G32A A89C | ≤ 0.026
G7U G28U A31U G67C | ≤ 0.026
U8A U76G C77A G88A | ≤ 0.026
U8C A74U G84A | ≤ 0.026
U8A U20C C81U | ≤ 0.026
U8A U20C C81G | ≤ 0.026
U8C G61C G73C | ≤ 0.026
U8G A30G C64U C75U G86C | ≤ 0.026
U8A A9G C11U A30G U58G U71C | ≤ 0.026
U8C C34U U57A G66U G73C | ≤ 0.026
U8C G15C U70C C79U A87G | ≤ 0.026
U8A U21A G32C | ≤ 0.026
G7U U63C | ≤ 0.026
G7U G19A | ≤ 0.026
G7U G61A | ≤ 0.026
U8A A60U G78A | ≤ 0.026
U8A G19U C29G C34U | ≤ 0.026
G7U A30U C34U G65U | ≤ 0.026
U8A U16G | 0.0647

Variant | nonsense suppression
U8G A9U C83A | ≤ 0.026
U8A U58A U70G | ≤ 0.026
G7U A24C C68U | ≤ 0.026
U8A C27G G65C A74G | ≤ 0.026
G7U G19C G32U | ≤ 0.026
G7U A24C C68G G85A | ≤ 0.026
U8C A31G | 0.0327
G7U A30G G32A A33C G69U U70C G86C | ≤ 0.026
U8A A24G G69C C81A | ≤ 0.026
U8A C27G U63A | ≤ 0.026
U8A U57G G59A C75A G86C | ≤ 0.026
U8A G19U C29G A30C A31G G84A | ≤ 0.026
U8A G15A | ≤ 0.026
U8A G19C A60G | ≤ 0.026
U8A A9G U57C U63A | ≤ 0.026
G7U G18U A31G C82A | ≤ 0.026
G7U C12G G25U G32C G69U | ≤ 0.026
U8C A24G | ≤ 0.026
U8A C12A | ≤ 0.026
G7U G67C | ≤ 0.026
U8C G67A A74C | ≤ 0.026
U8C A31C G61U C75A | ≤ 0.026
U8A C29A C83U | ≤ 0.026

— the RNAGym collection of RNA variant scans (doi:10.1101/gad.245936.114)
